Tested on: Colletotrichum orbiculare
Experiment: whole plant or invertebrate
Conditions: in Cucumis sativus, read-out: Test H control value

| Structure (SMILES) | pest or weed control at 250 ppm |
| --- | --- |
| CCn1c(-c2c(F)cc(F)cc2F)c(-n2cnc(Cl)c2Cl)cc(Cl)c1=O [compound 138, 3-chloro-5-(4,5-dichloro-1H-imidazol-1-yl)-1-ethyl-6-(2,4,6-trifluorophenyl)pyridin-2(1H)-one] | > 50% |
| CCn1c(-c2c(F)cc(F)cc2F)c(-n2cc(Cl)cn2)cc(I)c1=O [compound 140, 5-(4-chloro-1H-pyrazol-1-yl)-1-ethyl-3-iodo-6-(2,4,6-trifluoro-phenyl)pyridin-2(1H)-one] | > 50% |
| CCn1c(-c2c(F)cccc2F)c(-c2c[nH]cc2C#N)cc(Cl)c1=O [compound 88, 4-(5-chloro-1-ethyl-6-oxo-2-(2,6-difluorophenyl)-1,6-dihydro-pyridin-3-yl)-1H-pyrrol-3-carbonitrile] | < 50% |
| CCn1c(-c2c(F)cc(F)cc2F)c(-c2cnco2)cc(Cl)c1=O [compound 36, 3-chloro-1-ethyl-5-(oxazol-5-yl)-6-(2,4,6-trifluorophenyl)pyridin-2(1H)-one] | > 50% |
| CCn1c(-c2c(F)cc(F)cc2F)c(-n2cncn2)cc(Cl)c1=O [compound 34, 3-chloro-1-ethyl-5-(1H-1,2,4-triazol-1-yl)-6-(2,4,6-trifluorophenyl)pyridin-2(1H)-one] | > 50% |
| CCn1c(-c2c(F)cc(OC)cc2F)c(-c2c(Br)cnn2C)cc(Cl)c1=O [compound 23, 5-(4-bromo-1-methyl-1H-pyrazol-5-yl)-3-chloro-6-(2,6-difluoro-4-methoxyphenyl)-1-ethylpyridin-2(1H)-one] | > 50% |
| CCn1c(-c2c(F)cc(F)cc2F)c(-n2cc(Cl)cn2)cc(Cl)c1=O [compound 40, 3-chloro-5-(4-chloro-1H-pyrazol-1-yl)-1-ethyl-6-(2,4,6-trifluoro-phenyl)pyridin-2(1H)-one] | > 50% |
| CCN1C(=O)CCC(c2cccs2)=C1c1c(F)cccc1F [compound 2, 6-(2,6-difluorophenyl)-1-ethyl-5-(thiophen-2-yl)-3,4-dihydropyridin-2(1H)-one] | > 50% |
| CCn1c(-c2c(F)cc(F)cc2F)c(-n2cnc(Cl)c2Cl)ccc1=O [compound 136, 5-(4,5-dichloro-1H-imidazol-1-yl)-1-ethyl-6-(2,4,6-trifluorophenyl)pyridin-2(1H)-one] | > 50% |

— US11178870B2 (priority 2017, dated 2021)
